# Data as given in PubChem BioAssay AID686979 (National Center for Advancing Translational Sciences (NCATS), 2013).
# Screen size: about 420,000 compounds; about 50,000 (12%) were called active. The shares of active, inactive and inconclusive entries below differ from those in the screen. Calls come from the whole dose curve; as a rule, active = well fitted inhibition curve with a large enough effect; inconclusive = small, poorly fitted or top-dose-only effect; inactive = flat fitted curve, though single readings scatter. No potency is given beside an inconclusive call; the fits are too rough.
# Assay: qHTS for Inhibitors of human tyrosyl-DNA phosphodiesterase 1 (TDP1): qHTS in cells in presence of CPT; note: nearly all actives have a fitted effect of over 55% in size
# Conditions: chicken DT40 Tdp1-/-;hTDP1 cells + 20 nM CPT, ATP luminescence, 48 h; activity change, negative = growth inhibition: at 46.2 µM (top of the series) unless noted
# Procedure, shortened: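 Cell growth measured by CellTiter-Glo luminescence after a minimum 48 h, 37 C compound exposure with 20 nM CPT in Tdp1-knockout DT40 cells stably expressing hTDP1, seeded 400/well; qHTS titration format.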
# % is set by controls: 0 for no effect and ±100 for the full control effect; potency is the fitted concentration of half-maximal effect; tags give direction and shape of the fitted curve.
SMILES,Potency,"activity change, negative = growth inhibition"
Cc1ccc(-n2cnn(-c3ccc([N+](=O)[O-])cc3[N+](=O)[O-])c2=O)cc1,"inconclusive [inhibitor, single point]",
[O-][n+]1ccc(C2CC2)cc1,"inconclusive [inhibitor, single point]",
Cc1nc(-c2cccc(S(=O)(=O)N3CCCCCC3)c2)cs1,,inactive: -12.2%
Clc1ccc(-c2cccc3nccn23)cc1,,inactive: -7.35%
CC(C)CN(CC(C)C)S(=O)(=O)N1CCC(C(=O)NCc2ccc(F)cc2)CC1,"inconclusive [inhibitor, partial curve, poor fit]",
Cc1cc(OCC(=O)NCC2(N3CCOCC3)CCCCC2)ccc1Cl,"inconclusive [inhibitor, single point]",
CC(C)(C)OC(=O)CNC(=O)c1[nH]cnc1C(=O)Nc1ccc(Cl)cc1,"inconclusive [inhibitor, single point]",
CC(=O)Nc1cc2c3ccccc3n(C)c2cc1[N+](=O)[O-],"inconclusive [inhibitor, single point]",
COc1ccc(NC(=O)c2ccc(COc3ccccc3)o2)cc1,"inconclusive [inhibitor, single point]",
O[C@H]1CN(CC2CCCCC2)[C@@H](c2ccc(Cl)cc2)C[C@@H]1n1cc(C2CC2)nn1,"inconclusive [inhibitor, single point]",
COc1ccc(CNc2c(CO)cnc3c2cnn3C)cc1,active: 8.2 µM,
O=c1c2ccccc2nc(/C=C/c2cc(Br)ccc2O)n1CCO,"inconclusive [inhibitor, single point]",
CCc1noc(-c2ccc(N3CCCCC3)c([N+](=O)[O-])c2)n1,,inconclusive: -37.1% [inhibitor]
COc1ccc(S(=O)(=O)CCC(=O)N2CCN(c3ccc([N+](=O)[O-])cc3)CC2)cc1,active: 10.3 µM,
CCCSc1nc2c(cnn2-c2ccc(C)cc2)c(=O)[nH]1,"inconclusive [inhibitor, single point]",
COc1ccc(-c2nc(C=O)cs2)cc1,"inconclusive [inhibitor, single point]",
O=C(COC(=O)/C=C/c1ccc(Cl)cc1Cl)Nc1cccc(S(=O)(=O)NC2=NCCC2)c1,,inactive: -27.6%
CCC/C=C1/CCCOC(C(=O)NCc2ccccc2)(C(F)(F)F)C1 (stereo unspecified),"inconclusive [inhibitor, single point]",
Cc1ccc(OCCCCn2c(CCNC(=O)C3CCCCC3)nc3ccccc32)cc1,"inconclusive [inhibitor, single point]",
Cc1ccccc1C(=O)Nc1ccc(N2CCCC2)cc1,"inconclusive [inhibitor, single point]",
Cc1ccc(/C=C2/NC(=O)N(c3ccccc3)C2=O)o1,active: 10.3 µM,
COc1cc(/C=C/C(=O)NC(=O)c2ccccc2O)ccc1OC(C)=O,"inconclusive [inhibitor, single point]",
COC(=O)C1=C(C)N(C)C(C)=C(C(=O)OC)C1c1ccc(C(=O)OC)cc1,"inconclusive [inhibitor, single point]",

SMILES,Potency,"activity change, negative = growth inhibition"
COc1ccc(Cc2nnc(SCC(=O)Nc3ncc(C)s3)o2)cc1,,inactive: -0.579%
COc1ccc(N2CCN(C(=O)COC(=O)c3cccc(S(=O)(=O)Nc4cccc(C)c4)c3)CC2)cc1,active: 16.4 µM,
CCC(=O)N1CCc2cc(CNC(=O)Nc3cc(Cl)ccc3C(=O)OC)ccc21,"inconclusive [inhibitor, single point]",
COc1ccc(-c2csc(NC(C)c3nc4cc(C(=O)NCCCO)ccc4n3Cc3ccc(C)cc3)n2)cc1 (stereo unspecified),"inconclusive [inhibitor, single point]",
CCOc1cc(NS(=O)(=O)c2ccccc2)c(OCC)cc1NC(=O)c1ccco1,"inconclusive [inhibitor, single point]",
CCc1cccc(NC(=O)C(CC(C)C)NS(=O)(=O)c2ccc3c(c2)oc(=O)n3C)c1 (stereo unspecified),"inconclusive [inhibitor, single point]",
Nc1nc(-c2ccccc2)cn1/N=C/c1ccccc1,"inconclusive [inhibitor, single point]",
CC1(C)CC(=O)C=C(Nc2ccc3c(c2)CCC3)C1,,inactive: -4.57%
Brc1ccc2nc(-c3ccccc3)c(Nc3ccc4c(c3)OCO4)n2c1,,inactive: -19.2%
COc1ccccc1CC(=O)NCCc1c[nH]c2ccccc12,,inactive: -3.85%
Nc1nc(N)c2ncc(C(=O)CCc3ccccc3)nc2n1,active: 13 µM,
CCCN(CCC)CCNC(=O)c1cc(-c2ccc(Br)s2)nc2ccccc12,active: 18.4 µM,
COc1ccc(Cl)cc1C(=O)n1cnc2ccccc21,,inactive: -14.4%
CCc1ccc(NC(=O)C2CCCN2S(=O)(=O)c2ccc3c(c2)C(C)(C)C(=O)N3C)cc1 (stereo unspecified),"inconclusive [inhibitor, partial curve]",
CCOc1ccc(S(=O)(=O)Nc2ccc(F)cc2)c(C)c1C,active: 25.9 µM,
CN(C)NC(=S)Nc1ccc(S(=O)(=O)N2CCCCC2)cc1,,inactive: 19.5%
CC1(C)CC(=O)c2cc(OCC(=O)NCCN3CCCc4ccccc43)ccc2O1,"inconclusive [inhibitor, single point]",
COC(=O)N1C(=O)[C@](Cc2ccccc2)(c2ccccc2)N1C(=O)OC,active: 13 µM,
CCN1CCCC1CNC(=O)c1cnn(-c2nccc(-c3ccccc3OC)n2)c1-c1ccco1 (stereo unspecified),"inconclusive [inhibitor, single point]",
COc1ccc(N2CCN(C(=O)COC(=O)/C=C/c3ccc(C(F)(F)F)cc3)CC2)cc1,,inconclusive: -32.1% [inhibitor]
O=C(Nc1cccc(Cl)c1)C1CCCN1S(=O)(=O)c1cccc2cccnc12 (stereo unspecified),"inconclusive [inhibitor, single point]",
CCc1cc2cc(C)cc(C)c2nc1SCC(=O)N1CCCC1,active: 29.1 µM,
CN1CCN(C(=O)c2ccc(C(F)(F)F)cc2)CC1,"inconclusive [inhibitor, single point]",
